Out of some 310,000 compounds screened, about 14,000 (4.5%) showed an effect of 50% or more. Effects have a minus sign here. The list shows a part of the results.
Target: human ether-à-go-go-related gene (hERG) potassium channel (human, UniProt Q12809)
Assay: primary screen, population patch clamp on CHO cells stably expressing hERG
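Note: peak tail current of the secondary pulse compared with the same well before compound.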

human ether-à-go-go-related gene (hERG) potassium channel, sequence (Q12809 whole entry, looked up): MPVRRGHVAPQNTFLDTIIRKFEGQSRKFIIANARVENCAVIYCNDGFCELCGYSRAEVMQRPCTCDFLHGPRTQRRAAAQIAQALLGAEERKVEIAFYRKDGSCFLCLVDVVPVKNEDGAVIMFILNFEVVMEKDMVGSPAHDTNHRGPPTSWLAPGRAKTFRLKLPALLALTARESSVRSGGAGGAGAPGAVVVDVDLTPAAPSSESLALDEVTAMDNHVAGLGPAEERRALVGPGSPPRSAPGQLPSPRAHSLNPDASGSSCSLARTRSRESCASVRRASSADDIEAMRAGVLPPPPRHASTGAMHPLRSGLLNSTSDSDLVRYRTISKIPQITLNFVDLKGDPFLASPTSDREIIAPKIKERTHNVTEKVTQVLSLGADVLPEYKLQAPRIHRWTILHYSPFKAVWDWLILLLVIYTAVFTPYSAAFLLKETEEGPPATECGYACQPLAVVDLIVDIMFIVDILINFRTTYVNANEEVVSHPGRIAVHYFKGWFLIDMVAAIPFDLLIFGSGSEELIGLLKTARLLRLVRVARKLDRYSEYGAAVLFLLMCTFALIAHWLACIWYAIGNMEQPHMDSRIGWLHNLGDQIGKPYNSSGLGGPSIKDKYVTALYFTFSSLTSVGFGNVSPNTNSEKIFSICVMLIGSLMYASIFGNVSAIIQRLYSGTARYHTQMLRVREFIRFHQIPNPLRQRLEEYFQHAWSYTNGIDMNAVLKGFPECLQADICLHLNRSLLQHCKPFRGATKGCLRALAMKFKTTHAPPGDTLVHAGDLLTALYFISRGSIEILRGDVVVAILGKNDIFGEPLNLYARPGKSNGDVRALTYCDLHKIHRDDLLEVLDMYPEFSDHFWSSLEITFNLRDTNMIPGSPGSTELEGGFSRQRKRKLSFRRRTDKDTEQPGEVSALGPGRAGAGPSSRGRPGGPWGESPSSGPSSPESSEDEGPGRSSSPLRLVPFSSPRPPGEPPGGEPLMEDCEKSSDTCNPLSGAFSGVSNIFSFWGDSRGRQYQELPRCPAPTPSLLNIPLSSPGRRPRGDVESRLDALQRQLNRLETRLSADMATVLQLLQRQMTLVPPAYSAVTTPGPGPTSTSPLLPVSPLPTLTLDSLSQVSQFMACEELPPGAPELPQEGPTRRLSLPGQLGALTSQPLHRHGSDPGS

Structure (SMILES) | hERG current change (%, negative = inhibition) at 10uM
Cn1c(=O)c2[nH]c(-c3cccnc3)nc2n(C)c1=O | 2.19%
CN1/C(=C/C2CC(=O)N(c3cccc4ccccc34)C2=O)C(C)(C)c2ccccc21 (centres unmarked) | 0.919%
COc1cc(C(=O)OCC(=O)Nc2c(F)c(F)c(F)c(F)c2F)cc(OC)c1OC | 0.103%
Cc1ccc(C(=O)O)cc1S(=O)(=O)N1CCOCC1 | 12.3%
O=C(CN(c1cccc(Cl)c1)S(=O)(=O)c1ccc(Cl)cc1)N1CCc2ccccc2C1 | -21.5%
CC(=O)Nc1ccc(NC(=O)CN(c2ccc([N+](=O)[O-])cc2)S(=O)(=O)c2ccccc2)cc1 | -22.3%
O=C(NCc1ccc(Cl)c(Cl)c1)c1ccc2c(c1)OCO2 | -10.7%
Cc1noc(NS(=O)(=O)c2ccc(NC(=O)C(F)(F)C(F)(F)C(F)(F)F)cc2)c1C | 20.3%
COc1ccc(CN2CCN(c3ccccc3F)CC2)c(OC)c1 | -75.1%
NC(=O)c1c(NC(=O)CCCn2cnc([N+](=O)[O-])n2)sc2c1CCCC2 | -12%
O=C(CN1CCOc2ccccc21)N1CCN(c2cccc(Cl)c2)CC1 | -21.9%
O=C(Nc1cn(-c2ccccc2)nc1-c1ccc(Cl)cc1)c1ccccc1 | 13.8%
COc1ccc(S(=O)(=O)N(C)C)cc1NC(=O)COC(=O)Cn1cnc2ccccc2c1=O | -8.25%
Cc1ccc(N2C(=O)C3C4C=CC(CNC(=S)Nc5cccc(Cl)c5)(O4)C3C2=O)cc1 (centres unmarked) | -15.7%
CCC(O)(CCN1CCCCC1)c1ccccc1 (centres unmarked) | -5.84%
CCC(Cc1ccccc1)NC(=O)CCn1cccc1 (centres unmarked) | 5.74%
O=C(CC1C(=O)NCCN1CC1CCCCC1)NC1(c2ccccc2)CC1 (centres unmarked) | 13.8%
O=C(COC(=O)c1ccccc1O)Nc1ccc(N2CCOCC2)cc1 | 4.73%
O=C(Nc1ccc(N2CCOCC2)cc1)c1ccc(Cl)c(S(=O)(=O)N2CCCC2)c1 | 11.2%
Cc1cccc(/C(N)=N/OC(=O)CCCc2ccccc2)c1 | -2.21%
O=C(CN1C(=O)C(=O)N(Cc2ccco2)C1=O)NC1CCCCC1 | 23.2%
O=C(NCc1cccnc1)c1ccc(Cl)c(S(=O)(=O)Nc2ccccc2C(=O)NCc2cccnc2)c1 | 14.2%

Structure (SMILES) | hERG current change (%, negative = inhibition) at 10uM
COC(=O)c1ccccc1NC(=O)CSc1nnc(-c2cccnc2)n1N | -6.71%
O=C1c2ccccc2CSc2c(O)cccc21 | -15.1%
CS(=O)(=O)N(CC(=O)N1CCCCCC1)c1cccc(Br)c1 | -16.9%
Cc1c(C(=O)NC(C)CN2CCCCC2)oc2ccccc12 (centres unmarked) | -27.6%
O=C(COc1cccc2ccccc12)NCc1cccnc1 | 1.02%
CCC1CCCCN1S(=O)(=O)c1ccc2c(c1)CCN2C(C)=O (centres unmarked) | 0.962%
CCn1c(CNc2nc(-c3ccccc3)cs2)nnc1SCC(=O)NCc1ccccc1 | -3.04%
CCOC(=O)c1c(C)c(C(=O)N2CCc3ccccc3C2)c(C)n1CC | -11.9%
C=CCn1c(SCC(=O)NC2CCCCC2)nnc1-c1ccc(OC)cc1 | -12%
COc1ccc2[nH]c(C(=O)Nc3ccc(F)cc3Br)cc2c1 | 11.7%
COCC(=O)c1[nH]c2ccccc2c1C | 8.33%
O=C(NCCN1C(=O)C2C3C=CC(C3)C2C1=O)N1CCCCC1 (centres unmarked) | 8%
Cc1ccc(N(C(=O)c2ccco2)C(C(=O)NC2CCCC2)c2cccnc2)cc1 (centres unmarked) | -9.88%
CCOC(=O)CCc1cnccc1-c1cccc(OC)c1O | -1.53%
CC(=O)N(CCC(c1ccco1)C(C)C)Cc1ccc(OC(C)C)cc1 (centres unmarked) | -9.13%
CCOC(=O)C1CCN(C(=O)Cn2cnc3sc(C)c(S(=O)(=O)N4CCOCC4)c3c2=O)CC1 | -14%
CCOc1ccc(N(C(=O)c2ccccc2Cl)C2=NC(C)(C)CS2)cc1 | -6.11%
CCc1ccccc1N(CC)C(=O)CCc1nc(-c2ccc(C)cc2)no1 | -6.03%
O=C(O)Cn1cc(/C=C2\SC(=O)N(c3ccccc3)C2=O)c2ccccc21 | 17.6%
Cc1cccc2cc(CNCC3CCCO3)c(Cl)nc12 (centres unmarked) | 21.9%
CC1CCCCN1C(=O)c1c(Cl)cnn1C (centres unmarked) | 4.61%
O=C(NCC1CCCO1)/C(=C/c1cn(-c2ccccc2)nc1-c1cccnc1)NC(=O)c1ccccc1 (centres unmarked) | -38.1%

— publication PMC4336329 (PLoS ONE, 2015)
